# Experimental data from PubChem BioAssay AID485364 (National Center for Advancing Translational Sciences (NCATS), 2010).
# Out of some 360,000 compounds screened, about 11,000 (3.1%) were called active. This list was built around the results that the source calls inconclusive (neither active nor inactive); the mix of calls is not that of the screen. The call rests on the fitted dose curve; in most records, active means well fitted inhibition curve with a large enough effect; inconclusive means small, poorly fitted or top-dose-only effect; inactive means no such curve, though single readings can be large or run the other way. No potency is given beside an inconclusive call; the fits are too rough.
# Molecular target: Schistosoma mansoni thioredoxin glutathione reductase (TGR) (UniProt Q962Y6)
# Test: qHTS Assay for the Inhibitors of Schistosoma Mansoni Peroxiredoxins; further: nearly all actives have a fitted effect of over 60% in size
# Details: purified TGR, DTNB reduction, TNB absorbance 405 nm; activity change, negative = inhibition: at 114 µM (top of the series) unless noted
# Method in brief: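 TGR 20 nM + NADPH 100 uM (dispensed conc.), cpd preinc 15 min RT; start with NADPH (500 uM addition) then DTNB (15 mM addition). Kinetic TNB absorbance, 405 nm filter. Four-parameter Hill fit across titration.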
# On the % scale 0 is the no-effect control and ±100 the full control effect; potency means the concentration at half of the fitted maximal effect; tags describe the fitted curve by direction and shape.
SMILES,Potency,"activity change, negative = inhibition"
COCCCn1c(SCC(=O)NC2CCS(=O)(=O)C2)nnc1-c1ccc(Cl)cc1 (stereo unspecified),"inconclusive [inhibitor, single point]",
Cc1cc2oc(=O)cc(CN3CCC(C)CC3)c2cc1C,,inactive: -25.3%
CCC(=O)c1ccc(/C=C/c2nc3ccccc3n2C)o1,"inconclusive [inhibitor, full curve]",
COc1cc2[nH]c(=S)n(Cc3ccc(C)o3)c(=O)c2cc1OC,"inconclusive [inhibitor, partial curve]",
CN(C)CC/C=C1\c2ccccc2Sc2ccc(Cl)cc21,,inactive: -6.64%
CC1CCCCN1C(=S)NC(=O)c1cccs1 (stereo unspecified),"inconclusive [inhibitor, single point]",
Nc1ccc(N2CCCCCC2)cc1,"inconclusive [inhibitor, single point]",
Fc1ccc(CSc2nnc(-c3cccnc3)n2Cc2ccco2)cc1,"inconclusive [inhibitor, partial curve, poor fit]",
COc1cc(NC(=O)C2=CC(c3ccc(F)cc3)=NS(=O)(=O)N2C)cc(OC)c1OC,,inactive: 0.958%
COc1cc(/C=C/C(=O)NCCc2ccc(S(N)(=O)=O)cc2)ccc1OCC#N,,inactive: -8.04%
CN(C(=O)Cn1nc(C(=O)O)c2ccccc2c1=O)C1(C#N)CCCCC1,"inconclusive [inhibitor, single point]",
COc1ccc(CNC(=O)Cn2nc(C(F)(F)F)cc2C)cc1,,inactive: 6.46%
Cc1ccc2nc(SCC(=O)N/N=C/c3ccco3)cc(C)c2c1,"inconclusive [inhibitor, full curve, poor fit]",
O=C(Nc1ccc(C(=O)N2CCCCC2)cc1)C1CCCCC1,,inactive: 0.532%
O=C(COc1c(Br)cc(Br)cc1Br)N/N=C/c1ccco1,"inconclusive [inhibitor, single point]",
COc1ccc(NC(=O)CSc2ccc(-c3ccco3)nn2)cc1,active: 14.1 µM,
Cc1cccc(OCC(=O)NCC(c2ccco2)N2CCCC2)c1 (stereo unspecified),"inconclusive [inhibitor, partial curve]",
Cc1cc(C)n(CC(=O)Nc2ccc3c(c2)OCO3)c(=O)c1C#N,,inactive: 1.03%
CC(=NCCN1CCNCC1)C1=C(O)CC(C)(C)CC1=O,"inconclusive [inhibitor, partial curve]",
Cc1ccc(/C=C/C(=O)c2ccc(O)cc2)cc1,,inactive: -35.6%
C#CCOCCOCCOCCNc1nc(N2CCN(C(=O)[C@H](CCC(=O)O)n3cc(C(N)CC(C)C)nn3)CC2)nc(N2CCN(C(=O)[C@H](Cc3cc4ccccc4[nH]3)n3cc(C(N)[C@H](C)CC)nn3)CC2)n1 (stereo partly specified),"inconclusive [inhibitor, partial curve]",
CC(=O)Nc1ccc(S(=O)(=O)Nc2nc(CN3CCOCC3)nc3sc4c(c23)CCCC4)cc1,"inconclusive [inhibitor, partial curve]",
CC(C)C[C@H](NC(=O)c1[nH]cnc1C(=O)Nc1ccc(Cl)cc1)C(=O)OC(C)(C)C,,inactive: 18.1%

SMILES,Potency,"activity change, negative = inhibition"
CNc1ccc(Br)cc(C(=O)/C=C/c2cccc(OC)c2)c1=O,active: 3.16 µM,
Cc1cccc(C(=O)NC(=S)Nc2ccc(Cc3ccncc3)cc2)c1,"inconclusive [inhibitor, full curve, poor fit]",
COc1cc(C2C3=C(CC(c4ccco4)CC3=O)Nc3ccccc3N2C(C)=O)cc(OC)c1OC (stereo unspecified),active: 79.4 µM,
O=C1c2ccccc2NC(c2ccccc2O)N1O (stereo unspecified),,inactive: -13.9%
COC(=O)c1ccc(CSc2nnnn2-c2ccc(C)cc2C)o1,"inconclusive [inhibitor, partial curve]",
C=CCn1c(SCc2cc(C(=O)OC)c(C)o2)nnc1-c1ccncc1,"inconclusive [inhibitor, partial curve]",
COC(=O)C1=C(C)N(c2ccc(OC)c(OC)c2)C(=O)C1,"inconclusive [inhibitor, partial curve]",
CCc1ccccc1NC(=O)Cn1nc(CC)n2c(cc3sccc32)c1=O,"inconclusive [inhibitor, single point]",
COc1ccc([C@]23Cc4cc(OC)c(OC)cc4C(O2)c2c(cc(C)n(Cc4ccccc4)c2=O)O3)cc1,"inconclusive [inhibitor, partial curve]",
CC(C)(C)NC(=O)C(c1ccc(Cl)cc1)N(Cc1ccco1)C(=O)CCl (stereo unspecified),active: 11.2 µM,
Cc1cc(-n2c(C)cc(C(=O)CSc3[nH]c(=O)cc(C(F)(F)F)c3C#N)c2C)no1,"inconclusive [inhibitor, partial curve]",
O=C(COc1ccccc1)Nc1c2c(nn1-c1ccccc1)CS(=O)(=O)C2,,inactive: -3.16%
COc1ccc(-c2noc(CCC(=O)NCc3ccco3)n2)cc1,active: 39.8 µM,
Cc1ccc2oc3c(c(=O)c2c1)C(c1cccs1)N(CCCN(C)C)C3=O (stereo unspecified),"inconclusive [inhibitor, partial curve]",
CCOc1cccc(CN2CCCC(N3CCc4ccccc4C3)C2)c1O (stereo unspecified),"inconclusive [inhibitor, partial curve]",
CC(C)(C)CN1CCNC(=O)C1CC(=O)NCCc1cnn(-c2ccccc2)c1 (stereo unspecified),"inconclusive [inhibitor, partial curve]",
COc1ccc(C(=O)Nc2c(C(C)(C)C)nn(C)c2C(C)(C)C)cc1,,inactive: 6.06%
Oc1ccccc1-c1cc(-c2ccco2)[nH]n1,"inconclusive [inhibitor, partial curve]",
COC(=O)c1ccc(OCc2nc(N)nc(N3CCOCC3)n2)cc1,,inactive: -22.2%
NS(=O)(=O)c1ccc(O)c(NC(=O)c2ccc([N+](=O)[O-])o2)c1,"inconclusive [inhibitor, partial curve]",
Cc1ccc(C(=O)c2oc3ccccc3c2NC(=O)c2cc(-c3cc(C)ccc3O)n[nH]2)cc1,,inactive: -6.89%
Cc1oc(/C=N/NC(=O)CN(c2ccccc2Br)S(C)(=O)=O)cc1Br,active: 44.7 µM,
O=C(Cn1nc(-c2ccco2)ccc1=O)Nc1cc(C(F)(F)F)ccc1Cl,active: 50.1 µM,
